# In the supplement of paper PMC11741623:
# The list shows a part of the results. Interaction screen of human proteins with wild-type SARS-CoV-2 proteins by split-DHFR complementation in yeast, 1 µg/mL methotrexate. Value = fitness of the pair (three or more lineages) minus that of the viral protein without a human partner, on a scale set by negative (0) and fused positive (1) controls, mean of up to three cultures; higher = more likely to interact. Active = false discovery rate below 0.05 (one-sided t-test) in at least one culture. Nearly all pairs are not hits, and differences among them are mostly noise (correlation between cultures about 0.3); most hits were seen in one culture only. Human sequences are the Swiss-Prot entries looked up by gene name; the clone may be another isoform. NSP2 values were corrected by the authors for a growth advantage. Listed are human proteins with a hit and a random twelfth of the others.
# Tests used:
# Experiment in all cases: yeast fitness gain over the viral ORF with no human partner (scaled fitness); higher = more likely to interact
# SARS-CoV-2 ORF6 = target: SARS-CoV-2 ORF6
# Description: (§1)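 Split mouse DHFR complementation in pooled diploid yeast: human ORFeome clones carry one fragment and viral ORFs the other; barcoded lineages compete in 1 µg/mL methotrexate and fitness is read by barcode sequencing in up to three cultures.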
# SARS-CoV-2 ORF7B = target: SARS-CoV-2 ORF7B
# Description: as §1
# SARS-CoV-2 ORF8 = target: SARS-CoV-2 ORF8
# Description: as §1
# SARS-CoV-2 ORF7A = target: SARS-CoV-2 ORF7A
# Description: as §1
# SARS-CoV-2 ORF9B = target: SARS-CoV-2 ORF9B
# Description: as §1
binder,measurement,setting,value
"OR5T1, Q8NG75 (protein) MSGLPSDMDLYKLQLNNFTEVTMFILISFTEEFDVQVFLFLLFLAIYLFTLIGNLGLVVPIIGDFWLHSPMYYFLGVLSFLDVCYSTVVTPKMLVNFLAKNKSISFLGCATQMFLACTFGTTECFLLAAMAYDRYVAIYNPLLYSVSMSPRVYVPLITASYVASILHATIHTVATFSLSFCGSNEIRHVFCNMPPLLAISCSDTHVIQLLFFYFVGSIEIVTILIVLISYGFILLAILKMQSAEGRRKVFSTCGAHLTGVTIYHGTILFMYVRPSSSYTSDNDMIVSIFYTIVIPMLNPIIYSLRNKDVKEAIKRLLVRNWFINKL",yeast fitness gain,SARS-CoV-2 ORF6,inactive: -0.0609
same,yeast fitness gain,SARS-CoV-2 ORF7B,inactive: -0.102
"RGN, Q15493 (protein) MSSIKIECVLPENCRCGESPVWEEVSNSLLFVDIPAKKVCRWDSFTKQVQRVTMDAPVSSVALRQSGGYVATIGTKFCALNWKEQSAVVLATVDNDKKNNRFNDGKVDPAGRYFAGTMAEETAPAVLERHQGALYSLFPDHHVKKYFDQVDISNGLDWSLDHKIFYYIDSLSYSVDAFDYDLQTGQISNRRSVYKLEKEEQIPDGMCIDAEGKLWVACYNGGRVIRLDPVTGKRLQTVKLPVDKTTSCCFGGKNYSEMYVTCARDGMDPEGLLRQPEAGGIFKITGLGVKGIAPYSYAG",yeast fitness gain,SARS-CoV-2 ORF6,inactive: -0.0973
"TMEM40, Q8WWA1 (protein) METSASSSQPQDNSQVHRETEDVDYGETDFHKQDGKAGLFSQEQYERNKSSSSSSSSSSSSSSSSSSSSSESNDEDQQPRATGKHRRSLGAGYPHGNGSPGPGHGEPDVLKDELQLYGDAPGEVVPSGESGLRRRGSDPASGEVEASQLRRLNIKKDDEFFHFVLLCFAIGALLVCYHYYADWFMSLGVGLLTFASLETVGIYFGLVYRIHSVLQGFIPLFQKFRLTGFRKTD",yeast fitness gain,SARS-CoV-2 ORF6,inactive: -0.108
"POMC, P01189 (protein) MPRSCCSRSGALLLALLLQASMEVRGWCLESSQCQDLTTESNLLECIRACKPDLSAETPMFPGNGDEQPLTENPRKYVMGHFRWDRFGRRNSSSSGSSGAGQKREDVSAGEDCGPLPEGGPEPRSDGAKPGPREGKRSYSMEHFRWGKPVGKKRRPVKVYPNGAEDESAEAFPLEFKRELTGQRLREGDGPDGPADDGAGAQADLEHSLLVAAEKKDEGPYRMEHFRWGSPPKDKRYGGFMTSEKSQTPLVTLFKNAIIKNAYKKGE",yeast fitness gain,SARS-CoV-2 ORF6,inactive: 0.0039
same,yeast fitness gain,SARS-CoV-2 ORF8,inactive: 0.0363
"TOPBP1, Q92547 (protein) MSRNDKEPFFVKFLKSSDNSKCFFKALESIKEFQSEEYLQIITEEEALKIKENDRSLYICDPFSGVVFDHLKKLGCRIVGPQVVIFCMHHQRCVPRAEHPVYNMVMSDVTISCTSLEKEKREEVHKYVQMMGGRVYRDLNVSVTHLIAGEVGSKKYLVAANLKKPILLPSWIKTLWEKSQEKKITRYTDINMEDFKCPIFLGCIICVTGLCGLDRKEVQQLTVKHGGQYMGQLKMNECTHLIVQEPKGQKYECAKRWNVHCVTTQWFFDSIEKGFCQDESIYKTEPRPEAKTMPNSSTPTSQINTIDSRTLSDVSNISNINASCVSESICNSLNSKLEPTLENLENLDVSAFQAPEDLLDGCRIYLCGFSGRKLDKLRRLINSGGGVRFNQLNEDVTHVIVGDYDDELKQFWNKSAHRPHVVGAKWLLECFSKGYMLSEEPYIHANYQPVEIPVSHKPESKAALLKKKNSSFSKKDFAPSEKHEQADEDLLSQYENGSSTVVEAKTSEARPFNDSTHAEPLNDSTHISLQEENQSSVSHCVPDVSTITEEGLFSQKSFLVLGFSNENESNIANIIKENAGKIMSLLSRTVADYAVVPLLGCEVEATVGEVVTNTWLVTCIDYQTLFDPKSNPLFTPVPVMTGMTPLEDCVISFSQCAGAEKESLTFLANLLGASVQEYFVRKSNAKKGMFASTHLILKERGGSKYEAAKKWNLPAVTIAWLLETARTGKRADESHFLIENSTKEERSLETEITNGINLNSDTAEHPGTRLQTHRKTVVTPLDMNRFQSKAFRAVVSQHARQVAASPAVGQPLQKEPSLHLDTPSKFLSKDKLFKPSFDVKDALAALETPGRPSQQKRKPSTPLSEVIVKNLQLALANSSRNAVALSASPQLKEAQSEKEEAPKPLHKVVVCVSKKLSKKQSELNGIAASLGADYRWSFDETVTHFIYQGRPNDTNREYKSVKERGVHIVSEHWLLDCAQECKHLPESLYPHTYNPKMSLDISAVQDGRLCNSRLLSAVSSTKDDEPDPLILEENDVDNMATNNKESAPSNGSGKNDSKGVLTQTLEMRENFQKQLQEIMSATSIVKPQGQRTSLSRSGCNSASSTPDSTRSARSGRSRVLEALRQSRQTVPDVNTEPSQNEQIIWDDPTAREERARLASNLQWPSCPTQYSELQVDIQNLEDSPFQKPLHDSEIAKQAVCDPGNIRVTEAPKHPISEELETPIKDSHLIPTPQAPSIAFPLANPPVAPHPREKIITIEETHEELKKQYIFQLSSLNPQERIDYCHLIEKLGGLVIEKQCFDPTCTHIVVGHPLRNEKYLASVAAGKWVLHRSYLEACRTAGHFVQEEDYEWGSSSILDVLTGINVQQRRLALAAMRWRKKIQQRQESGIVEGAFSGWKVILHVDQSREAGFKRLLQSGGAKVLPGHSVPLFKEATHLFSDLNKLKPDDSGVNIAEAAAQNVYCLRTEYIADYLMQESPPHVENYCLPEAISFIQNNKELGTGLSQKRKAPTEKNKIKRPRVH",yeast fitness gain,SARS-CoV-2 ORF7A,inactive: 0.0159
same,yeast fitness gain,SARS-CoV-2 ORF9B,inactive: 0.058
"MAGEF1, Q9HAY2 (protein) MLQTPESRGLPVPQAEGEKDGGHDGETRAPTASQERPKEELGAGREEGAAEPALTRKGARALAAKALARRRAYRRLNRTVAELVQFLLVKDKKKSPITRSEMVKYVIGDLKILFPDIIARAAEHLRYVFGFELKQFDRKHHTYILINKLKPLEEEEEEDLGGDGPRLGLLMMILGLIYMRGNSAREAQVWEMLRRLGVQPSKYHFLFGYPKRLIMEDFVQQRYLSYRRVPHTNPPEYEFSWGPRSNLEISKMEVLGFVAKLHKKEPQHWPVQYREALADEADRARAKARAEASMRARASARAGIHLW",yeast fitness gain,SARS-CoV-2 ORF8,inactive: -0.0436
